Each structure is given as a SMILES string. About 14,000 (4.5%) of roughly 310,000 compounds showed an effect of 50% or more. The effect is printed as a negative number. The list shows a part of the results.

We go through 44 compounds from article PMC4336329 (PLoS ONE, 2015).
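Note: peak tail current of the secondary pulse compared with the same well before compound.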

Sequence of human ether-à-go-go-related gene (hERG) potassium channel (Q12809 whole entry, looked up): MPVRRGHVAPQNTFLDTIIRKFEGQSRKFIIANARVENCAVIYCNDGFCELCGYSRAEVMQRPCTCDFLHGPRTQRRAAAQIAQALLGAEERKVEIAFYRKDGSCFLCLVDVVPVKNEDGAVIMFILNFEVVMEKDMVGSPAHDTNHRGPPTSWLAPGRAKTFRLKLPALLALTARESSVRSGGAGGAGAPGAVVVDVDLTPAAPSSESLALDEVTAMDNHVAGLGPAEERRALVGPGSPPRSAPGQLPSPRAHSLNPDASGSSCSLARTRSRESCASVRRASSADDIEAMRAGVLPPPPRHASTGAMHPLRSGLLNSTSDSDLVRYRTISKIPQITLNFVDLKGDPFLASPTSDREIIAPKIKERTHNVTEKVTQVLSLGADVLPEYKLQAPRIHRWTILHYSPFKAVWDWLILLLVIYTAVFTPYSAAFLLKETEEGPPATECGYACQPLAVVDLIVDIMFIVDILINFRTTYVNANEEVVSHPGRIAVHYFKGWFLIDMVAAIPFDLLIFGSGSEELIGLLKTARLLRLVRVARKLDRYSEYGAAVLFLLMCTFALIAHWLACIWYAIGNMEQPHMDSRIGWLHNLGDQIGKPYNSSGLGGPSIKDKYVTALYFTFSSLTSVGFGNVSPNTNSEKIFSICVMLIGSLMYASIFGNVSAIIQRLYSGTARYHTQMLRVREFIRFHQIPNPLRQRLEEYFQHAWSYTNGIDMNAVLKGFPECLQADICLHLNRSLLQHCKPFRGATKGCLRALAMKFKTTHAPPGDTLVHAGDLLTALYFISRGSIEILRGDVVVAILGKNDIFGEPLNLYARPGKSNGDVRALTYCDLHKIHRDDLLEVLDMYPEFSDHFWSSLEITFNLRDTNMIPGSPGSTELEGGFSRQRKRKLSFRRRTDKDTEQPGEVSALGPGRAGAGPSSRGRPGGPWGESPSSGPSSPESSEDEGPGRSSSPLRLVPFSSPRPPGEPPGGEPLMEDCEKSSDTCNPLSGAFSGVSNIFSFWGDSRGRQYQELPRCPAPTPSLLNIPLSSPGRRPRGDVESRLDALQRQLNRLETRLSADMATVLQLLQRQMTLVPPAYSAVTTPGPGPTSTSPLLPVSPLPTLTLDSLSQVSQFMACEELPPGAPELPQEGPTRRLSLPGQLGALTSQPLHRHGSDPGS

This assay has as its target human ether-à-go-go-related gene (hERG) potassium channel (human, UniProt Q12809). Briefly: primary screen, population patch clamp on CHO cells stably expressing hERG.
In the case of `CCN1CCN(C(=S)Nc2ccc([N+](=O)[O-])cc2)CC1`, the “hERG current change (%, negative = inhibition) at 10uM” value was -26.6%.
To `O=C(CN1C(=O)/C(=C/c2cccc(Br)c2)SC1=S)Nc1cccnc1` belongs 2.48%.
On to `COc1ccc(OC(=O)c2cccc(S(=O)(=O)N3CC(C)OC(C)C3)c2)cc1` (centres unmarked), for which the “hERG current change (%, negative = inhibition) at 10uM” value is reported as -24.9%.
To `COc1ccccc1CNC(=O)COC(=O)c1ncc(Cl)c(Cl)c1Cl` belongs 9.13%.
To `O=C(OCC(=O)N1N=C(c2ccc(Cl)cc2)CC1c1ccco1)c1ccccc1O` (centres unmarked) belongs 11.6%; to `CCc1ccc(CNC(=O)CCc2nnc(CCc3ccc(OC)cc3)o2)nc1`, -42.5%.
Consider `CC1CCCC(NC(=O)COC(=O)COc2ccccc2Cl)C1C` (centres unmarked), for which the “hERG current change (%, negative = inhibition) at 10uM” value stood at 15.8%.
With `O=C(NCCc1ccccc1F)c1ccc2c(c1)OCCO2` the figure was 6.59%; with `CCOC(=O)[C@@H]1[C@H]2COc3cc(OC)ccc3[C@@H]2N2C(=O)N(c3ccc(Cl)cc3)C(=O)[C@]12C`, -4.63%; with `CCOc1ccccc1C(=O)NC(C)c1ccc(-n2ccnc2)cc1` (centres unmarked), -57.5%.
With `CCOC(=O)[C@@H]1[C@H]2COc3ccc(Br)cc3[C@H]2N2C(=O)N(c3cccc(Cl)c3)C(=O)[C@]12C` the figure was 3.34%; with `CCn1c(C)cs/c1=N\C(=S)Nc1ccccc1C`, -9.03%; with `CC1Cc2ccccc2N1Cc1nc2cc(Cl)ccc2c(=O)[nH]1` (centres unmarked), 5.4%.
For `CCN(CC(=O)Nc1ccc2c(c1)OCCO2)CC(=O)Nc1ccc2c(c1)OCO2`, the “hERG current change (%, negative = inhibition) at 10uM” value is given as 28%.
For the compound `O=C(OCC(=O)N(c1ccccc1)C1CCCCC1)c1ccc(CO)cc1`, the “hERG current change (%, negative = inhibition) at 10uM” value is listed as -0.154%.
With `COCc1[nH]nc2c1C1(C(=O)N(C)c3ccccc31)C(C#N)=C(N)O2` (centres unmarked) the figure was 6.59%; with `COC(=O)C1=C(C)N=C2SCCC(=O)N2C1c1cccs1` (centres unmarked), 10.4%.
To `COc1cccc(NC(=O)C2C3C=CC(C3)C2C(=O)O)c1` (centres unmarked) belongs 8.61%.
As to `O=C1/C(=C/c2cccs2)SC(=S)N1NS(=O)(=O)c1ccccc1`, the “hERG current change (%, negative = inhibition) at 10uM” value is on record as -18.2%.
For `COc1ccccc1NC(=O)c1csc2c1CCCC2`, the “hERG current change (%, negative = inhibition) at 10uM” value was -8.98%.
As to `COc1ccccc1CCC(=O)Oc1ccccc1C#N`, the “hERG current change (%, negative = inhibition) at 10uM” value is 1.39%.
With `Cc1nc2ccc(Cl)cn2c1C(=O)NN` the figure was 10.9%; with `COc1ccc2[nH]c3c(=O)n(Cc4ccc(C(=O)N5CCCC5)cc4)c(=S)[nH]c3c2c1`, 18.2%.
With `CCOc1ccccc1CNC(=O)Cn1c(=O)oc2ccccc21` the figure was 9.29%.
To `CCS(=O)(=O)c1ccc2oc(SCC(=O)Nc3ccc(OC)cc3)nc2c1` belongs 30%; to `COc1cccc(NC(=O)C(=S)NC2CCCCC2)c1`, 1.42%.
For `CC1CC(NC(=O)c2ncn[nH]2)CC(C)(C)C1` (centres unmarked), the “hERG current change (%, negative = inhibition) at 10uM” value is listed as -10.1%.
With `CCOC(=O)c1ccccc1NC(=O)CSc1nc2ccncc2[nH]1` the figure was 2.39%; with `O=C(/C=C1\NC2(CCCC2)Cc2ccccc21)C(=O)N/N=C/c1ccc(O)c(O)c1`, -21.8%.
With `Clc1ccccc1CSc1nncn1-c1cccnc1`, the “hERG current change (%, negative = inhibition) at 10uM” value amounted to 1.94%.
As for `CC1CCN(S(=O)(=O)c2cccc(C(=O)NCc3ccco3)c2)CC1`, the “hERG current change (%, negative = inhibition) at 10uM” value is given as -48.1%.
With `N/C(=N\OC(=O)CCCCCN1C(=O)c2ccccc2C1=O)c1ccccc1` the figure was -0.332%; with `NCCc1c(Cc2ccccc2)[nH]c2ccccc12`, -15.8%.
On to `COC(=O)C1C(O)=C(C=NCC(C)N=CC2=C(O)C(C(=O)OC)C(C)(C)CC2=O)C(=O)CC1(C)C` (centres unmarked), for which the “hERG current change (%, negative = inhibition) at 10uM” value was found to be 14.8%.
For the compound `COC(=O)c1ccc(C(=O)N2CCCC(N3CCN(c4ccc(F)cc4)CC3)C2)nc1` (centres unmarked), the “hERG current change (%, negative = inhibition) at 10uM” value is -56.1%.
With `Cc1ccc(NC(=O)CNCc2ccc(Cl)cc2Cl)cc1S(=O)(=O)N(C)C` the figure was -28.1%.
With `CCOc1ccc(/C=N/OCC(=O)Nc2cc(S(=O)(=O)N3CCOCC3)ccc2OC)cc1` the figure was 4.31%.
With `Cc1ccsc1C(=O)N(Cc1nnc(-c2ccccc2Cl)o1)C1CC1` the figure was -17.9%; with `NC(=O)c1ccc[n+](CC(=O)c2ccc(Cl)c(Cl)c2)c1.[Br-]`, -5.23%; with `CCC(C)NC(=O)c1ccccc1C(=O)NC(C)CC` (centres unmarked), 1.76%.
As for `NS(=O)(=O)c1ccc(CCNC(=O)CCCCCNc2nc(=S)[nH]c3ccccc23)cc1`, the “hERG current change (%, negative = inhibition) at 10uM” value is 24.4%.
With `CCOc1[nH]n(-c2ccc(Cl)cc2)c(=O)c1C=Nc1ccc(Cl)cc1` the figure was 14.4%.
To `O=C(Cn1nc([N+](=O)[O-])nc1Br)NC(c1ccccc1)c1ccccc1` belongs -1.65%.
With `CC1(C)C(=O)C2(CCCCC2)C(=O)OC1c1cccc([N+](=O)[O-])c1` (centres unmarked) the figure was -2.69%.
